Results from the antibiotic and cytotoxicity screens of Wong et al. (2023).
Some of the results follow.

Assays:
[1] = system: HSkMC (human skeletal muscle cells); experiment: cytotoxicity call (relative viability < 0.9); settings: 10 µM
[2] = system: S. aureus RN4220; experiment: growth inhibition call (relative growth <= 0.2); settings: 50 µM

| Compound | cytotoxicity call [1] | growth inhibition call [2] |
| --- | --- | --- |
| Cc1noc(C)c1NC(=O)N(C)C[C@H]1Oc2ccc(NC(=O)Nc3cccc4ccccc34)cc2C(=O)N([C@H](C)CO)C[C@@H]1C | inactive | inactive |
| C[C@@H]1CN([C@H](C)CO)C(=O)Cc2cc(NC(=O)c3ccncc3)ccc2O[C@H]1CN(C)Cc1ccc(-c2ccccc2)cc1 | inactive | inactive |
| NNC(=S)NCc1ccc(F)cc1 | inactive | inactive |
| N[C@H]1CC[C@@H](NC(=O)[C@H]2CCc3ccccc32)CC1 | inactive | inactive |
| CS(=O)(=O)N1CCCn2c(nnc2Cn2cccn2)C1 | inactive | inactive |
| C[C@H]1CN([C@@H](C)CO)C(=O)c2cc(NC(=O)C3CCCCC3)ccc2O[C@@H]1CN(C)Cc1ccc(Oc2ccccc2)cc1 | inactive | inactive |
| C[C@H](CO)N1C[C@H](C)[C@@H](CN(C)C)Oc2ccc(NS(=O)(=O)c3ccc(Cl)cc3)cc2CC1=O | inactive | inactive |
| C=CCn1c(N2CCN(c3ccc(OC)cc3)CC2)nc2c1c(=O)n(C)c(=O)n2C | inactive | inactive |
| C[C@@H]1CN([C@@H](C)CO)C(=O)Cc2cc(NC(=O)CCCN(C)C)ccc2O[C@H]1CN(C)Cc1ccc(Oc2ccccc2)cc1 | inactive | inactive |
| C[C@@H]1CN([C@@H](C)CO)C(=O)Cc2cc(NC(=O)Nc3cccc4ccccc34)ccc2O[C@H]1CN(C)Cc1ccc(C(F)(F)F)cc1 | inactive | inactive |
| C[C@H](CO)N1C[C@H](C)[C@@H](CN(C)C(=O)CCC(F)(F)F)OCCCC[C@H](C)Oc2ccc(NC(=O)C3CCCCC3)cc2C1=O | inactive | inactive |
| NC(=O)NCC#Cc1ccc2c(c1)[C@]1(C(=O)N2)[C@H](C(=O)N2CCCCCCC2)[C@H]2C(=O)O[C@H](c3ccccc3)[C@H](c3ccccc3)N2[C@@H]1c1ccccc1OCCO | inactive | inactive |
| COc1ccc(CN(C)C[C@@H]2Oc3c(NS(=O)(=O)c4cn(C)cn4)cccc3C(=O)N([C@H](C)CO)C[C@@H]2C)cc1 | inactive | inactive |
| O=C(N[C@H]1CCS(=O)(=O)C1)N1CCCCC1 | inactive | inactive |
| C[C@H]1CN([C@@H](C)CO)C(=O)c2cc(C#CCN(C)C)cnc2O[C@H]1CN(C)C(=O)c1cnccn1 | inactive | inactive |
| O=c1c(O)cccc2cc(O)c(O)c(O)c12 | inactive | inactive |
| COc1ccccc1NC(=O)N(C)C[C@H]1Oc2ncc(C#CCN(C)C)cc2C(=O)N([C@H](C)CO)C[C@H]1C | inactive | inactive |
| CO[C@H]1CN(C)C(=O)c2cc(NS(=O)(=O)c3ccccc3)ccc2OC[C@H](C)N(C(=O)NC(C)C)C[C@@H]1C | inactive | inactive |
| COc1ccc(S(=O)(=O)N(C)C[C@H]2OCCCC[C@H](C)Oc3ccc(NC(=O)Nc4c(C)noc4C)cc3C(=O)N([C@H](C)CO)C[C@@H]2C)cc1 | inactive | inactive |
| C[C@@H]1CN([C@@H](C)CO)C(=O)c2cc(NC(=O)NC3CCCCC3)ccc2O[C@@H](C)CCCCO[C@H]1CN(C)Cc1ccccc1 | inactive | inactive |
| CC(C)NC(=O)Nc1ccc2c(c1)CC(=O)N([C@H](C)CO)C[C@@H](C)[C@H](CN(C)Cc1ccc(-c3ccccc3)cc1)O2 | inactive | inactive |
| N=C(N=C(N)N)Nc1ccccc1 | inactive | inactive |
| CN1C(=O)c2cc(NC(=O)Cc3cccs3)ccc2OC[C@@H]2O[C@@H](CC(=O)NCCCN3CCOCC3)CC[C@H]21 | inactive | inactive |
| COc1ccc2c3c([nH]c2c1)[C@H](CO)N(C[C@]13CN(C1)S(=O)(=O)c1cccs1)C(=O)c1ccccc1 | inactive | inactive |
| C[C@@H]1CN([C@@H](C)CO)S(=O)(=O)c2ccc(C#CC(C)(C)O)cc2O[C@H]1CN(C)Cc1ccc(F)cc1 | inactive | inactive |
| C[C@@H]1CN([C@@H](C)CO)C(=O)Cc2cc(NC(=O)Nc3ccc(C(F)(F)F)cc3)ccc2O[C@H]1CN(C)Cc1ccccc1 | inactive | inactive |

| Compound | cytotoxicity call [1] | growth inhibition call [2] |
| --- | --- | --- |
| Cc1ccc(-c2csc(-c3ccc(CN)cc3)n2)cc1 | active | inactive |
| C[C@H]1CN([C@@H](C)CO)C(=O)c2cc(NS(=O)(=O)c3ccccc3)ccc2O[C@H]1CN(C)S(C)(=O)=O | inactive | inactive |
| CS(=O)(=O)Nc1ccc2c(c1)[C@H]1C[C@@H](CC(=O)NCC3CC3)O[C@H](CO)[C@H]1O2 | inactive | inactive |
| O=C(C[C@H]1CC[C@H](NS(=O)(=O)c2ccccc2)[C@@H](CO)O1)NCc1ccncn1 | inactive | inactive |
| C[C@H](CO)N1C[C@H](C)[C@@H](CN(C)Cc2ccc3c(c2)OCO3)Oc2ccc(NC(=O)Nc3cccc4ccccc34)cc2CC1=O | inactive | inactive |
| C[C@@H]1CN([C@@H](C)CO)C(=O)c2cc(NC(=O)CCN3CCOCC3)ccc2O[C@@H]1CN(C)S(=O)(=O)c1ccccc1 | inactive | inactive |
| Cc1noc(C)c1S(=O)(=O)N(C)C[C@H]1Oc2ccc(NC(=O)Nc3ccc4c(c3)OCO4)cc2C(=O)N([C@@H](C)CO)C[C@H]1C | inactive | inactive |
| CCC(CCC(C)C1CCC2C3CCC4CC(O)CCC4(C)C3CCC12C)C(C)C (configuration not stated) | inactive | inactive |
| Cc1noc(C)c1NC(=O)N(C)C[C@@H]1Oc2c(NS(=O)(=O)c3cn(C)cn3)cccc2C(=O)N([C@H](C)CO)C[C@H]1C | inactive | inactive |
| CCOC(=O)CC(=O)c1ccn(C)n1 | inactive | inactive |
| C[C@@H](O)[C@H](N)C(=O)N[C@@H](CCCCN)C(=O)N1CCC[C@H]1C(=O)N[C@@H](CCCNC(=N)N)C(=O)O | inactive | inactive |
| OC[C@H]1O[C@@H](O)[C@@H](O)[C@@H](O)[C@@H]1O | inactive | inactive |
| C[C@@H]1CCCCO[C@H](CN(C)C(=O)Cc2ccccc2)[C@H](C)CN([C@@H](C)CO)C(=O)c2cc(NC(=O)NC3CCCCC3)ccc2O1 | inactive | inactive |
| CN1CCN(C(=O)C[C@@H]2C=C[C@@H](NC(=O)Cc3ccccn3)[C@H](CO)O2)CC1 | inactive | inactive |
| CCCNC(=O)N[C@@H]1CC[C@@H](CC(=O)N2CCN(C)CC2)O[C@@H]1CO | inactive | inactive |
| C[C@@H]1CN([C@@H](C)CO)C(=O)Cc2cc(NC(=O)Cn3cnnn3)ccc2O[C@@H]1CN(C)Cc1ccc(-c2ccccc2)cc1 | inactive | inactive |
| CO[C@H]1CN(C)C(=O)c2cc(NC(=O)Nc3ccccc3)ccc2OC[C@@H](C)N(C(=O)CN(C)C)C[C@H]1C | inactive | inactive |
| CC(C)NC(=O)N(C)C[C@H]1OCCCC[C@@H](C)Oc2ccc(NC(=O)Nc3ccc(C(F)(F)F)cc3)cc2C(=O)N([C@H](C)CO)C[C@@H]1C | inactive | inactive |
| Nc1ccccc1C(=O)N1CCOCC1 | inactive | inactive |
| C[C@H]1CCCCO[C@H](CN(C)Cc2ccc(C(F)(F)F)cc2)[C@@H](C)CN([C@@H](C)CO)C(=O)c2cc(NC(=O)c3ccncc3)ccc2O1 | inactive | inactive |
| COCC(=O)Nc1ccc2c(c1)C(=O)N(C)[C@H]1CC[C@@H](CC(=O)NC3Cc4ccccc4C3)O[C@@H]1CO2 | inactive | inactive |
| COc1ccc(S(=O)(=O)N(C)C[C@H]2OCCCC[C@@H](C)Oc3ccc(NC(=O)c4ccccc4)cc3C(=O)N([C@@H](C)CO)C[C@@H]2C)cc1 | inactive | inactive |
| COc1ccc(C(=O)NCc2ccc(OCCN(C)C)cc2)cc1OC | inactive | inactive |
| C[C@H](CO)N1C[C@H](C)[C@H](CN(C)Cc2ccc(-c3ccccc3)cc2)Oc2ccc(NC(=O)Nc3ccc(F)cc3)cc2C1=O | inactive | inactive |
| COc1ccc(S(=O)(=O)N(C)C[C@H]2Oc3ccc(NC(=O)CCC(F)(F)F)cc3CC(=O)N([C@@H](C)CO)C[C@H]2C)cc1 | inactive | inactive |
